Data on 32 sequences can be found in article PMC12820563, “FoxP3 forms a head-to-head dimer in vivo and stabilizes its multimerization on adjacent microsatellites”.

Some of the results follow.

In this experiment the target is T1, MBP-FoxP1dN (Mus musculus, UniProt P58462 326-579).
T1 sequence: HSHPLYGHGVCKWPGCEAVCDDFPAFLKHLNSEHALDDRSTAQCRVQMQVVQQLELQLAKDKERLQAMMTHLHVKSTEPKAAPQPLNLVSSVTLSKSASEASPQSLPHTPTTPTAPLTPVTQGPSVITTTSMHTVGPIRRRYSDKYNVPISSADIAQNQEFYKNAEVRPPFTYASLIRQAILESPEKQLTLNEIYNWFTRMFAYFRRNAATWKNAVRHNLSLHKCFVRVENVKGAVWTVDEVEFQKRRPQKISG
Put plainly: PD-seq (MBP pull-down with sequencing); 20 mM Tris-HCl pH 7.5, 100 mM NaCl, 1.5 mM MgCl2, 0.4 uM protein, 0.1 uM dsDNA library, 30 min, room temperature, amylose pull-down; high values mean tight binding. Conditions: protein: recombinant; tags: His6-MBP; chain copies: 2; dsDNA, one strand shown. Put shortly:
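E. coli-expressed mouse FoxP3 or FoxP1 fragment, N-terminus removed and tagged with His6-MBP, was used at 0.4 µM against 0.1 µM of a Klenow-filled degenerate double-stranded DNA library. After 30 min at room temperature in Tris pH 7.5 buffer with NaCl and MgCl2, complexes were pulled down on amylose resin and washed three times. Binding is pull-down over input reads-per-million enrichment from pooled replicates of the proteinase K-released, PCR-barcoded, Illumina-sequenced DNA.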
Regarding “GATGATTGTTCTCCCAGCTGATGAATTCGACAGTTCGAGTAAACAAATTTTCCTAATCTTTCTGTTCAAGCGCCATCTAC”, the binding signal is 0.853 RPM ratio (pull-down/input).

As for “GATGATTGTTCTCCCAGCTGATGAATTGTTTGTATCGAGTAAACAAATTTTCCTAATCTTTCTGTTCAAGCGCCATCTAC”, the binding signal was 2.64 RPM ratio (pull-down/input).

With “GATGATTGTTCTCCCAGCTGATGAATTCGTATTTTCGAGTAAACAAATTTTCCTAATCTTTCTGTTCAAGCGCCATCTAC”, the binding signal is 1.67 RPM ratio (pull-down/input).

As to “GATGATTGTTCTCCCAGCTGATGAATTAGGCGGTTCGAGTAAACAAATTTTCCTAATCTTTCTGTTCAAGCGCCATCTAC”, the binding signal was 0.893 RPM ratio (pull-down/input).

Turning to “GATGATTGTTCTCCCAGCTGATGAATTTGGTGGGTCGAGTAAACAAATTTTCCTAATCTTTCTGTTCAAGCGCCATCTAC”, the binding signal was 0.806 RPM ratio (pull-down/input).

Turning to “GATGATTGTTCTCCCAGCTGATGAATTTTTAGAATCGAGTAAACAAATTTTCCTAATCTTTCTGTTCAAGCGCCATCTAC”, the binding signal is 1.06 RPM ratio (pull-down/input).

Consider “GATGATTGTTCTCCCAGCTGATGAATTTGTTTCATCGAGTAAACAAATTTTCCTAATCTTTCTGTTCAAGCGCCATCTAC”, for which the binding signal is 1.33 RPM ratio (pull-down/input).

Consider “GATGATTGTTCTCCCAGCTGATGAATTCTCCAAATCGAGTAAACAAATTTTCCTAATCTTTCTGTTCAAGCGCCATCTAC”, for which the binding signal was 0.987 RPM ratio (pull-down/input).

As to “GATGATTGTTCTCCCAGCTGATGAATTCAACCACTCGAGTAAACAAATTTTCCTAATCTTTCTGTTCAAGCGCCATCTAC”, the binding signal was 0.908 RPM ratio (pull-down/input).

On to “GATGATTGTTCTCCCAGCTGATGAATTTCTTGCTTCGAGTAAACAAATTTTCCTAATCTTTCTGTTCAAGCGCCATCTAC”, for which the binding signal is 0.927 RPM ratio (pull-down/input).

“GATGATTGTTCTCCCAGCTGATGAATTTATGTAATCGAGTAAACAAATTTTCCTAATCTTTCTGTTCAAGCGCCATCTAC”: the binding signal was 1.95 RPM ratio (pull-down/input).

In the case of “GATGATTGTTCTCCCAGCTGATGAATTCACCGTGTCGAGTAAACAAATTTTCCTAATCTTTCTGTTCAAGCGCCATCTAC”, the binding signal was 0.847 RPM ratio (pull-down/input).

Regarding “GATGATTGTTCTCCCAGCTGATGAATTTTCTAAGTCGAGTAAACAAATTTTCCTAATCTTTCTGTTCAAGCGCCATCTAC”, the binding signal is 0.939 RPM ratio (pull-down/input).

Regarding “GATGATTGTTCTCCCAGCTGATGAATTAAGCAGCTCGAGTAAACAAATTTTCCTAATCTTTCTGTTCAAGCGCCATCTAC”, the binding signal is 0.868 RPM ratio (pull-down/input).

As for “GATGATTGTTCTCCCAGCTGATGAATTTAACTCCTCGAGTAAACAAATTTTCCTAATCTTTCTGTTCAAGCGCCATCTAC”, the binding signal was 0.748 RPM ratio (pull-down/input).

Turning to “GATGATTGTTCTCCCAGCTGATGAATTACCTTGGTCGAGTAAACAAATTTTCCTAATCTTTCTGTTCAAGCGCCATCTAC”, the binding signal was 0.861 RPM ratio (pull-down/input).

With “GATGATTGTTCTCCCAGCTGATGAATTATGCCGGTCGAGTAAACAAATTTTCCTAATCTTTCTGTTCAAGCGCCATCTAC”, the binding signal is 0.919 RPM ratio (pull-down/input).

Turning to “GATGATTGTTCTCCCAGCTGATGAATTTTTTTATTCGAGTAAACAAATTTTCCTAATCTTTCTGTTCAAGCGCCATCTAC”, the binding signal is 0.953 RPM ratio (pull-down/input).

Consider “GATGATTGTTCTCCCAGCTGATGAATTTTCTCCATCGAGTAAACAAATTTTCCTAATCTTTCTGTTCAAGCGCCATCTAC”, for which the binding signal was 1.08 RPM ratio (pull-down/input).

For “GATGATTGTTCTCCCAGCTGATGAATTTAGGGTATCGAGTAAACAAATTTTCCTAATCTTTCTGTTCAAGCGCCATCTAC”, the binding signal was 1.07 RPM ratio (pull-down/input).

“GATGATTGTTCTCCCAGCTGATGAATTCCGAGCCTCGAGTAAACAAATTTTCCTAATCTTTCTGTTCAAGCGCCATCTAC”: the binding signal was 0.817 RPM ratio (pull-down/input).

“GATGATTGTTCTCCCAGCTGATGAATTGCCCAACTCGAGTAAACAAATTTTCCTAATCTTTCTGTTCAAGCGCCATCTAC”: the binding signal was 0.877 RPM ratio (pull-down/input).

For “GATGATTGTTCTCCCAGCTGATGAATTACGACAATCGAGTAAACAAATTTTCCTAATCTTTCTGTTCAAGCGCCATCTAC”, the binding signal was 1.3 RPM ratio (pull-down/input).

With “GATGATTGTTCTCCCAGCTGATGAATTGCAGACGTCGAGTAAACAAATTTTCCTAATCTTTCTGTTCAAGCGCCATCTAC”, the binding signal is 1.07 RPM ratio (pull-down/input).

Consider “GATGATTGTTCTCCCAGCTGATGAATTGAGTTAATCGAGTAAACAAATTTTCCTAATCTTTCTGTTCAAGCGCCATCTAC”, for which the binding signal is 0.998 RPM ratio (pull-down/input).

With “GATGATTGTTCTCCCAGCTGATGAATTCGACAAGTCGAGTAAACAAATTTTCCTAATCTTTCTGTTCAAGCGCCATCTAC”, the binding signal was 0.784 RPM ratio (pull-down/input).

“GATGATTGTTCTCCCAGCTGATGAATTTGAACTATCGAGTAAACAAATTTTCCTAATCTTTCTGTTCAAGCGCCATCTAC”: the binding signal was 0.841 RPM ratio (pull-down/input).

Regarding “GATGATTGTTCTCCCAGCTGATGAATTCGGCTGCTCGAGTAAACAAATTTTCCTAATCTTTCTGTTCAAGCGCCATCTAC”, the binding signal was 0.796 RPM ratio (pull-down/input).

Consider “GATGATTGTTCTCCCAGCTGATGAATTCTTGGATTCGAGTAAACAAATTTTCCTAATCTTTCTGTTCAAGCGCCATCTAC”, for which the binding signal is 0.901 RPM ratio (pull-down/input).

As to “GATGATTGTTCTCCCAGCTGATGAATTTAACGAATCGAGTAAACAAATTTTCCTAATCTTTCTGTTCAAGCGCCATCTAC”, the binding signal is 0.949 RPM ratio (pull-down/input).

As to “GATGATTGTTCTCCCAGCTGATGAATTCTATCATTCGAGTAAACAAATTTTCCTAATCTTTCTGTTCAAGCGCCATCTAC”, the binding signal is 0.959 RPM ratio (pull-down/input).

For the sequence “GATGATTGTTCTCCCAGCTGATGAATTTTCATCATCGAGTAAACAAATTTTCCTAATCTTTCTGTTCAAGCGCCATCTAC”, the binding signal is 1.08 RPM ratio (pull-down/input).
